Laboratory results reported in the supplement of paper PMC8728848.
The other results are listed elsewhere or left out.

Assays:
Assay in all cases: glycan array binding signal (z-score within array); higher = stronger binding
Settings in all cases: glycan notation: IUPAC condensed, linker removed; mutation: E347A
GalNAc(b1-3)GalNAc = molecular target: GalNAc(b1-3)GalNAc
In short: (§1)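 Columns mapping to the same glycan were averaged after glycan names were converted to IUPAC-condensed notation. The data come from 3228 arrays in the Consortium for Functional Glycomics database, limited to those with an available protein sequence. Binding is reported as a within-array Z-score averaged across arrays of one protein sequence and across linkers.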

GalNAc(b1-4)GlcNAc = molecular target: GalNAc(b1-4)GlcNAc
In short: as §1

Glc(a1-4)Glc = molecular target: Glc(a1-4)Glc
In short: as §1

Glc(a1-6)Glc(a1-6)Glc = molecular target: Glc(a1-6)Glc(a1-6)Glc
In short: as §1

Glc(b1-4)Glc = molecular target: Glc(b1-4)Glc
In short: as §1

Glc(b1-6)Glc = molecular target: Glc(b1-6)Glc
In short: as §1

GlcA(b1-3)Gal = molecular target: GlcA(b1-3)Gal
In short: as §1

GlcA(b1-3)GlcNAc = molecular target: GlcA(b1-3)GlcNAc
In short: as §1

GlcA(b1-6)Gal = molecular target: GlcA(b1-6)Gal
In short: as §1

[1] = molecular target: GlcNAc(a1-3)Gal(b1-4)GlcNAc
In short: as §1

[2] = molecular target: GlcNAc(a1-6)Gal(b1-4)GlcNAc
In short: as §1

[3] = molecular target: GlcNAc(b1-2)Gal(b1-3)GalNAc
In short: as §1

[4] = molecular target: GlcNAc(b1-2)Man(a1-3)[GlcNAc(b1-2)Man(a1-6)]Man(b1-4)GlcNAc(b1-4)GlcNAc
In short: as §1

GlcNAc(b1-3)Gal = molecular target: GlcNAc(b1-3)Gal
In short: as §1

[5] = molecular target: GlcNAc(b1-3)Gal(b1-3)GalNAc
In short: as §1

GlcNAc(b1-3)Gal(b1-4)Glc = molecular target: GlcNAc(b1-3)Gal(b1-4)Glc
In short: as §1

[6] = molecular target: GlcNAc(b1-3)Gal(b1-4)GlcNAc
In short: as §1

[7] = molecular target: GlcNAc(b1-3)Gal(b1-4)GlcNAc(b1-3)Gal(b1-4)GlcNAc
In short: as §1

GlcNAc(b1-3)GalNAc = molecular target: GlcNAc(b1-3)GalNAc
In short: as §1

GlcNAc(b1-3)Man = molecular target: GlcNAc(b1-3)Man
In short: as §1

[8] = molecular target: GlcNAc(b1-3)[GlcNAc(b1-4)][GlcNAc(b1-6)]GlcNAc
In short: as §1

[9] = molecular target: GlcNAc(b1-3)[GlcNAc(b1-6)]Gal(b1-4)GlcNAc
In short: as §1

[10] = molecular target: GlcNAc(b1-3)[GlcNAc(b1-6)]GalNAc
In short: as §1

[11] = molecular target: GlcNAc(b1-4)Gal(b1-4)GlcNAc
In short: as §1

GlcNAc(b1-4)GlcNAc = molecular target: GlcNAc(b1-4)GlcNAc
In short: as §1

[12] = molecular target: GlcNAc(b1-4)GlcNAc(b1-4)GlcNAc
In short: as §1

[13] = molecular target: GlcNAc(b1-4)GlcNAc(b1-4)GlcNAc(b1-4)GlcNAc(b1-4)GlcNAc
In short: as §1

[14] = molecular target: GlcNAc(b1-4)GlcNAc(b1-4)GlcNAc(b1-4)GlcNAc(b1-4)GlcNAc(b1-4)GlcNAc
In short: as §1

[15] = molecular target: GlcNAc(b1-4)[GlcNAc(b1-6)]GalNAc
In short: as §1

[16] = molecular target: GlcNAc(b1-6)Gal(b1-4)GlcNAc
In short: as §1

GlcNAc(b1-6)GalNAc = molecular target: GlcNAc(b1-6)GalNAc
In short: as §1

GlcNAc3Prop(b1-4)GlcNAc = molecular target: GlcNAc3Prop(b1-4)GlcNAc
In short: as §1

Kdn(a2-3)Gal(b1-3)GlcNAc = molecular target: Kdn(a2-3)Gal(b1-3)GlcNAc
In short: as §1

Kdn(a2-3)Gal(b1-4)GlcNAc = molecular target: Kdn(a2-3)Gal(b1-4)GlcNAc
In short: as §1

[17] = molecular target: Man(a1-2)Man(a1-2)Man(a1-3)Man
In short: as §1

[18] = molecular target: Man(a1-2)Man(a1-2)Man(a1-6)[Man(a1-3)]Man
In short: as §1

Man(a1-2)Man(a1-3)Man = molecular target: Man(a1-2)Man(a1-3)Man
In short: as §1

[19] = molecular target: Man(a1-2)Man(a1-3)[Man(a1-2)Man(a1-6)]Man
In short: as §1

[20] = molecular target: Man(a1-2)Man(a1-3)[Man(a1-2)Man(a1-6)]Man(a1-6)[Man(a1-2)Man(a1-2)Man(a1-3)]Man
In short: as §1

[21] = molecular target: Man(a1-2)Man(a1-3)[Man(a1-2)Man(a1-6)]Man(a1-6)[Man(a1-2)Man(a1-2)Man(a1-3)]Man(b1-4)GlcNAc(b1-4)GlcNAc
In short: as §1

[22] = molecular target: Man(a1-2)Man(a1-3)[Man(a1-6)]Man(a1-6)[Man(a1-2)Man(a1-3)]Man(b1-4)GlcNAc(b1-4)GlcNAc
In short: as §1

[23] = molecular target: Man(a1-2)Man(a1-6)[Man(a1-3)]Man(a1-6)[Man(a1-2)Man(a1-2)Man(a1-3)]Man
In short: as §1

[24] = molecular target: Man(a1-2)Man(a1-6)[Man(a1-3)]Man(a1-6)[Man(a1-2)Man(a1-2)Man(a1-3)]Man(b1-4)GlcNAc(b1-4)GlcNAc
In short: as §1

Man(a1-3)[Man(a1-6)]Man = molecular target: Man(a1-3)[Man(a1-6)]Man
In short: as §1

[25] = molecular target: Man(a1-3)[Man(a1-6)]Man(a1-6)[Man(a1-2)Man(a1-3)]Man(b1-4)GlcNAc(b1-4)GlcNAc
In short: as §1

B1: Surfactant Protein D (Human); Neck + Carbohydrate Recognition Domain (NCRD) (Homo sapiens) (protein)
chain: MLLFLLSALVLLTQPLGYLEAEMKTYSHRTMPSACTLVMCSSVESGLPGRDRDGREGPRGEKGDPGLPGAAGQAGMPGQAGPVGPKGDNGSVGEPGPKGDTGPSGPPGPPGVPGPAGREGALGKQGNIGPQGKPGPKGEAGPKGEVGAPGMQGSAGARGLAGPKGERGVPGERGVPGNTGAAGSAGAMGPQGSPGARGPPGLKGDKGIPGDKGAKGESGLPDVASLRQQVEALQGQVQHLQAAFSQYKKVELFPNGQSVGEKIFKTAQFVKPFTEAQLLCTQAGGQLASPRSAAENAALQQLVVAKNEAAFLSMTDSKTEGKFTYPTGESLVYSNWAPGEPNDDGGSADCVEIFTNGKWNDRACGAKRLVVCEF
GalNAc(b1-3)GalNAc
  glycan array binding signal (z-score): -0.433
GalNAc(b1-4)GlcNAc
  glycan array binding signal (z-score): -0.131
Glc(a1-4)Glc
  glycan array binding signal (z-score): -0.277
Glc(a1-6)Glc(a1-6)Glc
  glycan array binding signal (z-score): -0.483
Glc(b1-4)Glc
  glycan array binding signal (z-score): -0.481
Glc(b1-6)Glc
  glycan array binding signal (z-score): -0.061
GlcA(b1-3)Gal
  glycan array binding signal (z-score): -0.025
GlcA(b1-3)GlcNAc
  glycan array binding signal (z-score): -0.461
GlcA(b1-6)Gal
  glycan array binding signal (z-score): 0.001
[1]
  glycan array binding signal (z-score): -0.451
[2]
  glycan array binding signal (z-score): -0.2
[3]
  glycan array binding signal (z-score): -0.21
[4]
  glycan array binding signal (z-score): -0.193
GlcNAc(b1-3)Gal
  glycan array binding signal (z-score): -0.071
[5]
  glycan array binding signal (z-score): 0.038
GlcNAc(b1-3)Gal(b1-4)Glc
  glycan array binding signal (z-score): -0.453
[6]
  glycan array binding signal (z-score): -0.336
[7]
  glycan array binding signal (z-score): -0.163
GlcNAc(b1-3)GalNAc
  glycan array binding signal (z-score): 0.066
GlcNAc(b1-3)Man
  glycan array binding signal (z-score): -0.334
[8]
  glycan array binding signal (z-score): 0.071
[9]
  glycan array binding signal (z-score): -0.283
[10]
  glycan array binding signal (z-score): -0.308
[11]
  glycan array binding signal (z-score): -0.184
GlcNAc(b1-4)GlcNAc
  glycan array binding signal (z-score): -0.104
[12]
  glycan array binding signal (z-score): 0.708
[13]
  glycan array binding signal (z-score): -0.165
[14]
  glycan array binding signal (z-score): -0.023
[15]
  glycan array binding signal (z-score): 0.112
[16]
  glycan array binding signal (z-score): -0.176
GlcNAc(b1-6)GalNAc
  glycan array binding signal (z-score): -0.036
GlcNAc3Prop(b1-4)GlcNAc
  glycan array binding signal (z-score): -0.18
Kdn(a2-3)Gal(b1-3)GlcNAc
  glycan array binding signal (z-score): -0.027
Kdn(a2-3)Gal(b1-4)GlcNAc
  glycan array binding signal (z-score): 0.165
[17]
  glycan array binding signal (z-score): 1.11
[18]
  glycan array binding signal (z-score): 0.579
Man(a1-2)Man(a1-3)Man
  glycan array binding signal (z-score): 1.58
[19]
  glycan array binding signal (z-score): 6.34
[20]
  glycan array binding signal (z-score): -0.461
[21]
  glycan array binding signal (z-score): 0.006
[22]
  glycan array binding signal (z-score): 10.1
[23]
  glycan array binding signal (z-score): 5.19
[24]
  glycan array binding signal (z-score): 1.25
Man(a1-3)[Man(a1-6)]Man
  glycan array binding signal (z-score): -0.421
[25]
  glycan array binding signal (z-score): 10.2
